The record followed here is the supplement of paper PMC12230231.

± gives the standard deviation of the averaged measurements. Restriction of a single-cycle SIVsab GFP reporter by TRIM5α v1-loop variants in CRFK cells. Human variants: read share among cells still uninfected after two challenges over input, higher = gained restriction. Rhesus variants: share among infected cells over input, higher = lost restriction. Reporter dose not given per row. No active / inactive call per row; the paper calls a change when both replicates lie above its controls (mean + 2 SD of stop or wild-type variants, or the top frameshift score). Residues outside the varied loop are taken from Swiss-Prot. The paper reads the human single-substitution scores as noise; they and the rhesus combinations repeat poorly (rank correlation 0.3 to 0.4), indel scores repeat only for the top variants, rhesus substitutions well (0.9).

This series has as its system SIVsab (simian immunodeficiency virus of sabaeus monkeys), single-cycle GFP reporter, in CRFK cells. Put plainly: enrichment among infected cells over input (fold); higher = weaker restriction. As to conditions: library: human / rhesus combinations. As to the method:
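Pools of CRFK cells expressing variants of the TRIM5α v1 loop were challenged with the single-cycle reporter, sorted by GFP and sequenced; mean of two replicates.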
With “MASGILLNVKEEVTCPICLELLTEPLSLHCGHSFCQACITANHKKSMLYKEGERSCPVCRISYQPENIQPNRHVANIVEKLREVKLSPEEGQKVDHCARHGEKLLLFCQEDSKVICWLCERSQEHRGHHTFLMEEVAQEYHVKLQTALEMLRQKQQEAEKLEADIREEKASWKIQIDYDKTNVSADFEQLREILDWEESNELQNLEKEEEDILKSLTKSETEMVQQTQYMRELISELEHRLQGSMMDLLQGVDGIIKRIENMTLKKPKTFHKNQRRVFRAPDLKGMLDMFRELTDARRYWVDVTLAPNNISHAVIAEDKRQVSSRNPQIMYQAPGTRFPSFVNFNYCTGVLGSQSITSGKHYWEVDVSKKSAWILGVCAGFQSDAMYNIEQNENYQPKYGYWVIGLQEGVKYSVFQDGSSHTPFAPFIVPLSVIICPDRVGVFVDYEACTVSFFNITNHGFLIYKFSQCSFSKPVFPYLNPRKCTVPMTLCSPSS [rhesus TRIM5α, 332-344 = QAPGTRFPSFV]”, the enrichment worked out at 1.59 ± 0.71. In the case of “MASGILLNVKEEVTCPICLELLTEPLSLHCGHSFCQACITANHKKSMLYKEGERSCPVCRISYQPENIQPNRHVANIVEKLREVKLSPEEGQKVDHCARHGEKLLLFCQEDSKVICWLCERSQEHRGHHTFLMEEVAQEYHVKLQTALEMLRQKQQEAEKLEADIREEKASWKIQIDYDKTNVSADFEQLREILDWEESNELQNLEKEEEDILKSLTKSETEMVQQTQYMRELISELEHRLQGSMMDLLQGVDGIIKRIENMTLKKPKTFHKNQRRVFRAPDLKGMLDMFRELTDARRYWVDVTLAPNNISHAVIAEDKRQVSSRNPQIMYQAPGTRFQSFVNFNYCTGVLGSQSITSGKHYWEVDVSKKSAWILGVCAGFQSDAMYNIEQNENYQPKYGYWVIGLQEGVKYSVFQDGSSHTPFAPFIVPLSVIICPDRVGVFVDYEACTVSFFNITNHGFLIYKFSQCSFSKPVFPYLNPRKCTVPMTLCSPSS [rhesus TRIM5α, 332-344 = QAPGTRFQSFV]”, the enrichment is 0.481 ± 0.39.

As to “MASGILLNVKEEVTCPICLELLTEPLSLHCGHSFCQACITANHKKSMLYKEGERSCPVCRISYQPENIQPNRHVANIVEKLREVKLSPEEGQKVDHCARHGEKLLLFCQEDSKVICWLCERSQEHRGHHTFLMEEVAQEYHVKLQTALEMLRQKQQEAEKLEADIREEKASWKIQIDYDKTNVSADFEQLREILDWEESNELQNLEKEEEDILKSLTKSETEMVQQTQYMRELISELEHRLQGSMMDLLQGVDGIIKRIENMTLKKPKTFHKNQRRVFRAPDLKGMLDMFRELTDARRYWVDVTLAPNNISHAVIAEDKRQVSSRNPQIMYQAPGTRFTFPSFVNFNYCTGVLGSQSITSGKHYWEVDVSKKSAWILGVCAGFQSDAMYNIEQNENYQPKYGYWVIGLQEGVKYSVFQDGSSHTPFAPFIVPLSVIICPDRVGVFVDYEACTVSFFNITNHGFLIYKFSQCSFSKPVFPYLNPRKCTVPMTLCSPSS [rhesus TRIM5α, 332-344 = QAPGTRFTFPSFV]”, the enrichment was 1.28 ± 0.65.

For “MASGILLNVKEEVTCPICLELLTEPLSLHCGHSFCQACITANHKKSMLYKEGERSCPVCRISYQPENIQPNRHVANIVEKLREVKLSPEEGQKVDHCARHGEKLLLFCQEDSKVICWLCERSQEHRGHHTFLMEEVAQEYHVKLQTALEMLRQKQQEAEKLEADIREEKASWKIQIDYDKTNVSADFEQLREILDWEESNELQNLEKEEEDILKSLTKSETEMVQQTQYMRELISELEHRLQGSMMDLLQGVDGIIKRIENMTLKKPKTFHKNQRRVFRAPDLKGMLDMFRELTDARRYWVDVTLAPNNISHAVIAEDKRQVSSRNPQIMYQAPGTRFTFPTFTNFNYCTGVLGSQSITSGKHYWEVDVSKKSAWILGVCAGFQSDAMYNIEQNENYQPKYGYWVIGLQEGVKYSVFQDGSSHTPFAPFIVPLSVIICPDRVGVFVDYEACTVSFFNITNHGFLIYKFSQCSFSKPVFPYLNPRKCTVPMTLCSPSS [rhesus TRIM5α, 332-344 = QAPGTRFTFPTFT]”, the enrichment is 0.903 ± 0.14. For “MASGILLNVKEEVTCPICLELLTEPLSLHCGHSFCQACITANHKKSMLYKEGERSCPVCRISYQPENIQPNRHVANIVEKLREVKLSPEEGQKVDHCARHGEKLLLFCQEDSKVICWLCERSQEHRGHHTFLMEEVAQEYHVKLQTALEMLRQKQQEAEKLEADIREEKASWKIQIDYDKTNVSADFEQLREILDWEESNELQNLEKEEEDILKSLTKSETEMVQQTQYMRELISELEHRLQGSMMDLLQGVDGIIKRIENMTLKKPKTFHKNQRRVFRAPDLKGMLDMFRELTDARRYWVDVTLAPNNISHAVIAEDKRQVSSRNPQIMYQAPGTRFTFPTFVNFNYCTGVLGSQSITSGKHYWEVDVSKKSAWILGVCAGFQSDAMYNIEQNENYQPKYGYWVIGLQEGVKYSVFQDGSSHTPFAPFIVPLSVIICPDRVGVFVDYEACTVSFFNITNHGFLIYKFSQCSFSKPVFPYLNPRKCTVPMTLCSPSS [rhesus TRIM5α, 332-344 = QAPGTRFTFPTFV]”, the enrichment is 1.34 ± 0.88. Then “MASGILLNVKEEVTCPICLELLTEPLSLHCGHSFCQACITANHKKSMLYKEGERSCPVCRISYQPENIQPNRHVANIVEKLREVKLSPEEGQKVDHCARHGEKLLLFCQEDSKVICWLCERSQEHRGHHTFLMEEVAQEYHVKLQTALEMLRQKQQEAEKLEADIREEKASWKIQIDYDKTNVSADFEQLREILDWEESNELQNLEKEEEDILKSLTKSETEMVQQTQYMRELISELEHRLQGSMMDLLQGVDGIIKRIENMTLKKPKTFHKNQRRVFRAPDLKGMLDMFRELTDARRYWVDVTLAPNNISHAVIAEDKRQVSSRNPQIMYQAPGTRFTFPTLVNFNYCTGVLGSQSITSGKHYWEVDVSKKSAWILGVCAGFQSDAMYNIEQNENYQPKYGYWVIGLQEGVKYSVFQDGSSHTPFAPFIVPLSVIICPDRVGVFVDYEACTVSFFNITNHGFLIYKFSQCSFSKPVFPYLNPRKCTVPMTLCSPSS [rhesus TRIM5α, 332-344 = QAPGTRFTFPTLV]”, with 2.46 ± 0.62. As to “MASGILLNVKEEVTCPICLELLTEPLSLHCGHSFCQACITANHKKSMLYKEGERSCPVCRISYQPENIQPNRHVANIVEKLREVKLSPEEGQKVDHCARHGEKLLLFCQEDSKVICWLCERSQEHRGHHTFLMEEVAQEYHVKLQTALEMLRQKQQEAEKLEADIREEKASWKIQIDYDKTNVSADFEQLREILDWEESNELQNLEKEEEDILKSLTKSETEMVQQTQYMRELISELEHRLQGSMMDLLQGVDGIIKRIENMTLKKPKTFHKNQRRVFRAPDLKGMLDMFRELTDARRYWVDVTLAPNNISHAVIAEDKRQVSSRNPQIMYQAPGTRFTFQSFTNFNYCTGVLGSQSITSGKHYWEVDVSKKSAWILGVCAGFQSDAMYNIEQNENYQPKYGYWVIGLQEGVKYSVFQDGSSHTPFAPFIVPLSVIICPDRVGVFVDYEACTVSFFNITNHGFLIYKFSQCSFSKPVFPYLNPRKCTVPMTLCSPSS [rhesus TRIM5α, 332-344 = QAPGTRFTFQSFT]”, the enrichment amounted to 1.12 ± 0.57. For the sequence “MASGILLNVKEEVTCPICLELLTEPLSLHCGHSFCQACITANHKKSMLYKEGERSCPVCRISYQPENIQPNRHVANIVEKLREVKLSPEEGQKVDHCARHGEKLLLFCQEDSKVICWLCERSQEHRGHHTFLMEEVAQEYHVKLQTALEMLRQKQQEAEKLEADIREEKASWKIQIDYDKTNVSADFEQLREILDWEESNELQNLEKEEEDILKSLTKSETEMVQQTQYMRELISELEHRLQGSMMDLLQGVDGIIKRIENMTLKKPKTFHKNQRRVFRAPDLKGMLDMFRELTDARRYWVDVTLAPNNISHAVIAEDKRQVSSRNPQIMYQAPGTRFTFQSFVNFNYCTGVLGSQSITSGKHYWEVDVSKKSAWILGVCAGFQSDAMYNIEQNENYQPKYGYWVIGLQEGVKYSVFQDGSSHTPFAPFIVPLSVIICPDRVGVFVDYEACTVSFFNITNHGFLIYKFSQCSFSKPVFPYLNPRKCTVPMTLCSPSS [rhesus TRIM5α, 332-344 = QAPGTRFTFQSFV]”, the enrichment amounted to 1.7 ± 1.1.
